# Data reported in the supplement of paper PMC8728848.
# This is one part of the list.
# B1: FBG1 (Homo sapiens), Q9UK22 (protein)
# chain: MDGDGDPESVGQPEEASPEEQPEEASAEEERPEDQQEEEAAAAAAYLDELPEPLLLRVLAALPAAELVQACRLVCLRWKELVDGAPLWLLKCQQEGLVPEGGVEEERDHWQQFYFLSKRRRNLLRNPCGEEDLEGWCDVEHGGDGWRVEELPGDSGVEFTHDESVKKYFASSFEWCRKAQVIDLQAEGYWEELLDTTQPAIVVKDWYSGRSDAGCLYELTVKLLSEHENVLAEFSSGQVAVPQDSDGGGWMEISHTFTDYGPGVRFVRFEHGGQDSVYWKGWFGARVTNSSVWVEP
# Columns and labels:
# Test in all cases: glycan array binding signal (z-score within array); higher = stronger binding
# Details in all cases: glycan notation: IUPAC condensed, linker removed
# [1] = target: Fuc(a1-2)Gal
# How it was run: (§1)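 The binding signal is a Z-score computed within each array. Data were drawn from 3228 arrays in the Consortium for Functional Glycomics database, restricted to those with a known protein sequence. Scores were averaged over arrays of the same protein sequence at different concentrations or buffers, and over linkers, and negative values can be taken as non-binding.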
# [2] = target: Fuc(a1-2)Gal(b1-3)GalNAc
# How it was run: as §1
# [3] = target: Fuc(a1-2)Gal(b1-3)GalNAc(b1-3)Gal
# How it was run: as §1
# [4] = target: Fuc(a1-2)Gal(b1-3)GalNAc(b1-3)Gal(a1-4)Gal(b1-4)Glc
# How it was run: as §1
# [5] = target: Fuc(a1-2)Gal(b1-3)GalNAc(b1-4)[Neu5Ac(a2-3)]Gal(b1-4)Glc
# How it was run: as §1
# [6] = target: Fuc(a1-2)Gal(b1-3)GlcNAc
# How it was run: as §1
# [7] = target: Fuc(a1-2)Gal(b1-3)[Fuc(a1-4)]GlcNAc
# How it was run: as §1
# [8] = target: Fuc(a1-2)Gal(b1-4)Glc
# How it was run: as §1
# [9] = target: Fuc(a1-2)Gal(b1-4)GlcNAc
# How it was run: as §1
# [10] = target: Fuc(a1-2)Gal(b1-4)GlcNAc(b1-3)Gal(b1-4)GlcNAc
# How it was run: as §1
# [11] = target: Fuc(a1-2)Gal(b1-4)GlcNAc(b1-3)Gal(b1-4)GlcNAc(b1-3)Gal(b1-4)GlcNAc
# How it was run: as §1
# [12] = target: Fuc(a1-2)Gal(b1-4)[Fuc(a1-3)]GlcNAc
# How it was run: as §1
# [13] = target: Fuc(a1-2)GlcNAc
# How it was run: as §1
# [14] = target: Fuc(a1-2)[Gal(a1-3)]Gal
# How it was run: as §1
# [15] = target: Fuc(a1-2)[Gal(a1-3)]Gal(b1-4)GlcNAc
# How it was run: as §1
# [16] = target: Fuc(a1-2)[Gal(a1-4)]Gal(b1-4)GlcNAc
# How it was run: as §1
# [17] = target: Fuc(a1-2)[GalNAc(a1-3)]Gal
# How it was run: as §1
# [18] = target: Fuc(a1-2)[GalNAc(a1-3)]Gal(b1-4)GlcNAc
# How it was run: as §1
# [19] = target: Fuc(a1-2)[GalNAc(a1-4)]Gal(b1-4)GlcNAc
# How it was run: as §1
# [20] = target: Fuc(a1-2)[GalNAc(b1-3)]Gal
# How it was run: as §1
# [21] = target: Fuc(a1-3)GlcNAc
# How it was run: as §1
# [22] = target: Fuc(a1-3)[Gal(b1-4)]GlcNAc
# How it was run: as §1
# [23] = target: Fuc(a1-3)[Gal(b1-4)]GlcNAc(b1-3)Gal(b1-4)[Fuc(a1-3)]GlcNAc
# How it was run: as §1
# [24] = target: Fuc(a1-3)[Gal(b1-4)]GlcNAc(b1-3)Gal(b1-4)[Fuc(a1-3)]GlcNAc(b1-3)Gal(b1-4)[Fuc(a1-3)]GlcNAc
# How it was run: as §1
# [25] = target: Fuc(a1-3)[Gal3S(b1-4)]GlcNAc
# How it was run: as §1
# [26] = target: Fuc(b1-3)GlcNAc
# How it was run: as §1
# [27] = target: Gal(a1-2)Gal
# How it was run: as §1
# [28] = target: Gal(a1-3)Gal
# How it was run: as §1
# [29] = target: Gal(a1-3)Gal(b1-4)Glc
# How it was run: as §1
# [30] = target: Gal(a1-3)Gal(b1-4)GlcNAc
# How it was run: as §1
# [31] = target: Gal(a1-3)Gal(b1-4)[Fuc(a1-3)]GlcNAc
# How it was run: as §1
# [32] = target: Gal(a1-3)GalNAc
# How it was run: as §1
# [33] = target: Gal(a1-3)[Gal(a1-4)]Gal(b1-4)GlcNAc
# How it was run: as §1
# [34] = target: Gal(a1-4)Gal(b1-4)Glc
# How it was run: as §1
# [35] = target: Gal(a1-4)Gal(b1-4)GlcNAc
# How it was run: as §1
# [36] = target: Gal(a1-4)GlcNAc
# How it was run: as §1
# [37] = target: Gal(a1-6)Glc
# How it was run: as §1
# [38] = target: Gal(b1-2)Gal
# How it was run: as §1
# [39] = target: Gal(b1-3)Gal
# How it was run: as §1
# [40] = target: Gal(b1-3)GalNAc
# How it was run: as §1
# [41] = target: Gal(b1-3)GalNAc(b1-4)Gal(b1-4)Glc
# How it was run: as §1
# [42] = target: Gal(b1-3)GalNAc(b1-4)[Neu5Ac(a2-3)]Gal(b1-4)Glc
# How it was run: as §1
# [43] = target: Gal(b1-3)GlcNAc
# How it was run: as §1
# [44] = target: Gal(b1-3)GlcNAc(b1-3)Gal(b1-4)Glc
# How it was run: as §1
# [45] = target: Gal(b1-3)[Fuc(a1-4)]GlcNAc
# How it was run: as §1
# [46] = target: Gal(b1-3)[GlcNAc(b1-6)]GalNAc
# How it was run: as §1
# [47] = target: Gal(b1-3)[Neu5Ac(a2-6)]GalNAc
# How it was run: as §1
# [48] = target: Gal(b1-3)[Neu5Ac(a2-6)]GlcNAc(b1-4)Gal(b1-4)Glc
# How it was run: as §1
# [49] = target: Gal(b1-3)[Neu5Ac(b2-6)]GalNAc
# How it was run: as §1
# [50] = target: Gal(b1-4)GalNAc(a1-3)[Fuc(a1-2)]Gal(b1-4)GlcNAc
# How it was run: as §1
# [51] = target: Gal(b1-4)Glc
# How it was run: as §1
# [52] = target: Gal(b1-4)Glc6S
# How it was run: as §1
# [53] = target: Gal(b1-4)GlcNAc
# How it was run: as §1
# [54] = target: Gal(b1-4)GlcNAc(b1-3)Gal(b1-4)Glc
# How it was run: as §1
# [55] = target: Gal(b1-4)GlcNAc(b1-3)Gal(b1-4)GlcNAc
# How it was run: as §1
# [56] = target: Gal(b1-4)GlcNAc(b1-3)Gal(b1-4)GlcNAc(b1-3)Gal(b1-4)GlcNAc
# How it was run: as §1
# [57] = target: Gal(b1-4)GlcNAc(b1-3)Gal(b1-4)[Fuc(a1-3)]GlcNAc(b1-3)Gal(b1-4)[Fuc(a1-3)]GlcNAc
# How it was run: as §1
# [58] = target: Gal(b1-4)GlcNAc(b1-3)GalNAc
# How it was run: as §1
# [59] = target: Gal(b1-4)GlcNAc(b1-3)[Gal(b1-4)GlcNAc(b1-6)]GalNAc
# How it was run: as §1
# [60] = target: Gal(b1-4)GlcNAc(b1-6)GalNAc
# How it was run: as §1
# [61] = target: Gal(b1-4)GlcNAc(b1-6)[Gal(b1-3)]GalNAc
# How it was run: as §1
# [62] = target: Gal3S(b1-3)GalNAc
# How it was run: as §1
# [63] = target: Gal3S(b1-3)GlcNAc
# How it was run: as §1
# [64] = target: Gal3S(b1-3)[Fuc(a1-4)]GlcNAc
# How it was run: as §1
# [65] = target: Gal3S(b1-4)Glc
# How it was run: as §1
# [66] = target: Gal3S(b1-4)Glc6S
# How it was run: as §1
# [67] = target: Gal3S(b1-4)GlcNAc
# How it was run: as §1
# [68] = target: Gal4S(b1-4)GlcNAc
# How it was run: as §1
# [69] = target: Gal6S(b1-4)Glc
# How it was run: as §1
# [70] = target: Gal6S(b1-4)Glc6S
# How it was run: as §1
# [71] = target: GalNAc(a1-3)Gal
# How it was run: as §1
# [72] = target: GalNAc(a1-3)GalNAc
# How it was run: as §1
binder,measurement,setting,value
B1,glycan array binding signal (z-score),[1],-0.19
same,glycan array binding signal (z-score),[2],-0.234
same,glycan array binding signal (z-score),[3],-0.236
same,glycan array binding signal (z-score),[4],0.049
same,glycan array binding signal (z-score),[5],-0.235
same,glycan array binding signal (z-score),[6],-0.135
same,glycan array binding signal (z-score),[7],-0.248
same,glycan array binding signal (z-score),[8],-0.145
same,glycan array binding signal (z-score),[9],-0.226
same,glycan array binding signal (z-score),[10],0.482
same,glycan array binding signal (z-score),[11],-0.224
same,glycan array binding signal (z-score),[12],-0.22
same,glycan array binding signal (z-score),[13],-0.195
same,glycan array binding signal (z-score),[14],-0.04
same,glycan array binding signal (z-score),[15],-0.217
same,glycan array binding signal (z-score),[16],-0.261
same,glycan array binding signal (z-score),[17],-0.214
same,glycan array binding signal (z-score),[18],-0.246
same,glycan array binding signal (z-score),[19],-0.197
same,glycan array binding signal (z-score),[20],-0.163
same,glycan array binding signal (z-score),[21],-0.216
same,glycan array binding signal (z-score),[22],-0.214
same,glycan array binding signal (z-score),[23],-0.045
same,glycan array binding signal (z-score),[24],-0.227
same,glycan array binding signal (z-score),[25],-0.158
same,glycan array binding signal (z-score),[26],-0.199
same,glycan array binding signal (z-score),[27],-0.175
same,glycan array binding signal (z-score),[28],-0.252
same,glycan array binding signal (z-score),[29],-0.222
same,glycan array binding signal (z-score),[30],-0.265
same,glycan array binding signal (z-score),[31],-0.23
same,glycan array binding signal (z-score),[32],-0.228
same,glycan array binding signal (z-score),[33],-0.135
same,glycan array binding signal (z-score),[34],-0.196
same,glycan array binding signal (z-score),[35],-0.214
same,glycan array binding signal (z-score),[36],-0.221
same,glycan array binding signal (z-score),[37],-0.185
same,glycan array binding signal (z-score),[38],-0.204
same,glycan array binding signal (z-score),[39],0.137
same,glycan array binding signal (z-score),[40],-0.197
same,glycan array binding signal (z-score),[41],-0.232
same,glycan array binding signal (z-score),[42],-0.25
same,glycan array binding signal (z-score),[43],-0.191
same,glycan array binding signal (z-score),[44],-0.247
same,glycan array binding signal (z-score),[45],-0.215
same,glycan array binding signal (z-score),[46],0.004
same,glycan array binding signal (z-score),[47],-0.199
same,glycan array binding signal (z-score),[48],-0.202
same,glycan array binding signal (z-score),[49],-0.221
same,glycan array binding signal (z-score),[50],-0.202
same,glycan array binding signal (z-score),[51],-0.196
same,glycan array binding signal (z-score),[52],-0.148
same,glycan array binding signal (z-score),[53],-0.199
same,glycan array binding signal (z-score),[54],-0.219
same,glycan array binding signal (z-score),[55],-0.193
same,glycan array binding signal (z-score),[56],-0.221
same,glycan array binding signal (z-score),[57],-0.221
same,glycan array binding signal (z-score),[58],5.13
same,glycan array binding signal (z-score),[59],-0.163
same,glycan array binding signal (z-score),[60],-0.271
same,glycan array binding signal (z-score),[61],-0.223
same,glycan array binding signal (z-score),[62],-0.195
same,glycan array binding signal (z-score),[63],-0.166
same,glycan array binding signal (z-score),[64],-0.207
same,glycan array binding signal (z-score),[65],-0.236
same,glycan array binding signal (z-score),[66],-0.196
same,glycan array binding signal (z-score),[67],-0.217
same,glycan array binding signal (z-score),[68],0.19
same,glycan array binding signal (z-score),[69],-0.191
same,glycan array binding signal (z-score),[70],-0.115
same,glycan array binding signal (z-score),[71],-0.21
same,glycan array binding signal (z-score),[72],-0.264
